According to PubChem BioAssay AID1030 (National Center for Advancing Translational Sciences (NCATS), 2008):
The whole screen tested about 220,000 compounds, of which about 16,000 (7.3%) were called active. Inconclusive means that the source gave no clear call. Such entries were picked first, then a sample of the others. Calls follow the shape of the dose curve; as a rule, active = well fitted inhibition curve with a large enough effect (not every such curve was filed as active); inconclusive = small, poorly fitted or top-dose-only effect, or another doubt; inactive = no such curve, though single readings can be large or run the other way. Potencies of inconclusive entries are left out as doubtful fits.
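For activity, negative = inhibition in this document: plate controls were no enzyme wells and a reference inhibitor.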
Potency is read from the fitted curve at half-maximal effect; tags tell the direction and shape of the fitted curve.

The compounds below were run against Aldehyde dehydrogenase 1A1 (Homo sapiens) (UniProt P00352) (assay: qHTS Assay for Inhibitors of Aldehyde Dehydrogenase 1 (ALDH1A1)). Settings: Purified ALDH1A1, NADH fluorescence, propionaldehyde substrate; series mostly up to 75.3 µM; activity, negative = inhibition: at the top concentration.
UniProt P00352, sequence (P00352 whole entry, looked up): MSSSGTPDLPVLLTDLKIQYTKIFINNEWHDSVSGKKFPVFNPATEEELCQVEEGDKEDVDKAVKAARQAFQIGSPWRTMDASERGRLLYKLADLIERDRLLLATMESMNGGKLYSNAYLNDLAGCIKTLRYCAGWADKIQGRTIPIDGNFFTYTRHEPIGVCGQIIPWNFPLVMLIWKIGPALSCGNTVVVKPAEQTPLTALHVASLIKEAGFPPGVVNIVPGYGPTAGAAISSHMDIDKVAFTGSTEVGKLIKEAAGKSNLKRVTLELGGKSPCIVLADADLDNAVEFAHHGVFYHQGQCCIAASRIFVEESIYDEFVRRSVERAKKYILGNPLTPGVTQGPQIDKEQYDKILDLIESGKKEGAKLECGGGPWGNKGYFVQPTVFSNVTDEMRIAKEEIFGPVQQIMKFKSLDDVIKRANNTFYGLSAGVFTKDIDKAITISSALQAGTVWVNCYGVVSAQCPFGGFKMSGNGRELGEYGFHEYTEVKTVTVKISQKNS
In the case of COC(=O)C1(CCSC)NC(c2ccc(O)c(OC)c2)C2C(=O)N(c3ccc(C)cc3)C(=O)C21 (centres undefined), the “activity, negative = inhibition” value is reported as inactive: 6.45%.
In the case of O=C(NC(=S)NC(=O)c1ccccc1F)c1ccccc1F, the Potency is reported as active: 2 µM.
In the case of CCn1c(=S)[nH]c2sc3c(c2c1=O)CCCCC3, the Potency is reported as active: 22.4 µM.
For CSc1ccccc1NC(=O)c1cc(C(C)C)on1, the Potency was inconclusive [inhibitor, single point].
For O=C(O)CCC(O)=C1S(=O)(=O)OCCOS1(=O)=O, the activity, negative = inhibition was inactive: 8.22% [at 13.5 µM].
For Cc1csc(N/N=C\c2cccnc2)n1, the Potency was active: 11.2 µM.
CCOc1cc(CNc2ncn[nH]2)ccc1OCC(=O)NC(C)(C)C was tested, and the “activity, negative = inhibition” value was inactive: 5.62%.
NC(=O)N/N=C/c1ccc(N2CCOCC2)s1 was tested, and the Potency was inconclusive [inhibitor, single point].
With COc1ccc(-c2csc(NC(=O)c3ccoc3C)n2)cc1 the “activity, negative = inhibition” value was inactive: -4.33%.
For O=C(CC(c1ccc(F)cc1)c1ccco1)N1CCCC1 (centres undefined), the Potency was inconclusive [inhibitor, single point].
For NNc1nc2c(F)cccc2s1, the Potency was inconclusive [inhibitor, single point].
For O=C(OC1CCOC1=O)c1ccc(Cl)c(S(=O)(=O)N2CCCCC2)c1 (centres undefined), the “activity, negative = inhibition” value was inactive: -2.89%.
For COc1ccc(N=c2oc3cc(O)ccc3cc2C(=O)NCC2CCCO2)cc1 (centres undefined), the Potency was inconclusive [inhibitor, single point].
In the case of CCOC(=O)c1ccc(NC(=O)C23CCC(C)(C(=O)O2)C3(C)C)cc1 (centres undefined), the Potency is reported as inconclusive [inhibitor, single point].
With Cc1cc(C)cc(N(CC(=O)NCc2ccco2)C(=O)CCC(=O)Nc2ccccn2)c1 the Potency was inconclusive [inhibitor, single point].
For Cc1nc(Nc2ccccc2)c2nc(-c3ccccc3)n(CCCN3CCCCC3C)c2n1 (centres undefined), the “activity, negative = inhibition” value was inactive: -9.3%.
With N#Cc1ccc(NC(=O)Nc2ccc(Cl)cc2)cc1 the “activity, negative = inhibition” value was inactive: -3.57%.
For O=C(Cc1ccc(-n2c(=S)[nH]c3ccccc3c2=O)cc1)N1CCC(N2CCCCC2)CC1, the Potency was inconclusive [inhibitor, single point].
For Cc1ccc(Cl)c(OCC(=O)Nc2sc(C)c(C)c2C#N)c1, the Potency was inconclusive [inhibitor, single point].
OCc1cc2c(cn1)[nH]c1ccccc12 was tested, and the Potency was inconclusive [inhibitor, partial curve].
In the case of COC(=O)c1cc2c(s1)-c1cc(F)ccc1OC2, the Potency is reported as inconclusive [inhibitor, partial curve].
CNCCCCCCCCSc1nc(C(C)C)ccc1C(=O)c1cccs1 was tested, and the Potency was inconclusive [inhibitor, partial curve].
For C=CCSC1=N/C(=C\C=C\c2ccco2)C(=O)S1, the Potency was active: 20 µM.
With C=CCN1c2ccccc2[C@]23C[C@@H](C(=O)OC)N(C(=O)COCc4ccccc4)C2=NC(C(=O)OC)=C(C(=O)OC)[C@H]13 the activity, negative = inhibition was inactive: 6.93% [at 13.5 µM].
In the case of COc1cc(/C=C2\SC(=N)N(c3ccc4c(c3)OCO4)C2=O)cc(OC)c1O, the “activity, negative = inhibition” value is reported as inactive: 8.85%.
For COc1cc2c(C#N)c(N3CCN(C)CC3)nc(N)c2c(N)n1, the Potency was inconclusive [inhibitor, partial curve].
For COc1ccc(CCNC(=O)CNS(=O)(=O)c2cccs2)cc1OC, the “activity, negative = inhibition” value was inactive: 7.92%.
With Cc1nc(N2CCOCC2)c2nc(-c3ccccc3)n(CC(C)(C)CN(C)C)c2n1 the Potency was inconclusive [inhibitor, partial curve].
With Cc1nnc2n(Cc3ccccc3)c(=O)c3c4c(sc3n12)CCCC4 the “activity, negative = inhibition” value was inactive: 3.05%.
With Cc1ccc(C)n1CCN1CCN(C(=O)c2ccco2)CC1 the “activity, negative = inhibition” value was inactive: 0.0038%.
For CCOC(=O)CNC(=S)N(Cc1ccccc1)Cc1cccs1, the Potency was inconclusive [inhibitor, partial curve].
For CC(C)CCN1CCN(C2CCN(c3ccccc3)CC2)CC1CCO (centres undefined), the “activity, negative = inhibition” value was inactive: 3.96%.
In the case of COCc1[nH]nc2c1C(c1sccc1C)C(C#N)=C(N)O2 (centres undefined), the Potency is reported as inconclusive [inhibitor, single point].
In the case of CN(C)S(=O)(=O)N1CCN(CC(O)COc2ccc3cc(Br)ccc3c2)CC1 (centres undefined), the “activity, negative = inhibition” value is reported as inactive: -8.73%.
For COc1ccccc1N1CCN(C(=O)CCn2c(=O)[nH]c3ccccc3c2=O)CC1, the “activity, negative = inhibition” value was inactive: 11.1%.
For C=CCN(CC=C)C(=S)NC(=O)c1ccc(C)c(Br)c1, the Potency was inconclusive [inhibitor, single point].
With C[C@@H](c1ccccc1)N1C(=O)[C@H]2[C@H]3[C@H](O)[C@H](O)C/C(=N/NC(=O)OCc4ccccc4)[C@@H]3CC[C@@H]2C1=O the activity, negative = inhibition was inactive: -6.23% [at 13.5 µM].
For Cc1ccc2nc(SC(C)C(=O)N3CC(C)OC(C)C3)[nH]c2c1 (centres undefined), the “activity, negative = inhibition” value was inactive: -1.7%.
NC(=O)c1ccccc1NS(=O)(=O)c1ccc(F)cc1 was tested, and the Potency was inconclusive [inhibitor, single point].
For c1ccc(Cn2nnc3c(NCCN4CCOCC4)ncnc32)cc1, the Potency was inconclusive [inhibitor, partial curve].
In the case of COc1cc2oc(=O)cc(-c3ccc(-c4ccc(C)cc4)cc3)c2c(OC)c1OC, the Potency is reported as inconclusive [inhibitor, full curve, poor fit].
With O=C(NCCCN1CCOCC1)C(=O)N/N=C/c1ccc2c(c1)OCO2 the “activity, negative = inhibition” value was inactive: -1.15%.
For CCCC[C@@H]1C[C@H]1[C@@H](NP(=O)(c1ccccc1)c1ccccc1)c1ccccc1OC, the “activity, negative = inhibition” value was inactive: 7.5%.
In the case of CS(=O)(=O)N(CC(=O)NCc1ccncc1)c1ccc(F)c(Cl)c1, the “activity, negative = inhibition” value is reported as inactive: 14.5%.
With CCOC(=O)CSc1nc(-c2ccc3c(c2)OCO3)ccc1C#N the Potency was inconclusive [inhibitor, partial curve].
For COc1ccc2ccccc2c1CNc1nnnn1C, the “activity, negative = inhibition” value was inactive: -6.21%.
In the case of CCOC(=O)/C(=C/C=C/c1ccccc1)NC(=O)c1ccccc1, the Potency is reported as inconclusive [inhibitor, single point].
Cc1cc(C)n(Cc2ccccc2)c(=O)c1S(=O)(=O)c1ccccc1 was tested, and the Potency was inconclusive [inhibitor, partial curve].
For CCC(CC)C(=O)NCCCN1CCOCC1, the “activity, negative = inhibition” value was inactive: 22.7%.
With CC12CCC(C(=O)Nc3cccc(NC(=O)C45CCC(C)(C(=O)O4)C5(C)C)n3)(OC1=O)C2(C)C the “activity, negative = inhibition” value was inactive: -3.47%.
With CCn1cc([N+](=O)[O-])nc1C the Potency was inconclusive [inhibitor, single point].
For NC(=O)c1ccc(/C=N/O)nc1, the “activity, negative = inhibition” value was inactive: -5.35%.
For C=C1CC[C@H](O)C/C1=C/C=C1\CCC[C@]2(C)[C@@H]([C@H](C)CCCC(C)(C)O)CC[C@@H]12, the “activity, negative = inhibition” value was inactive: 7.73%.
In the case of O=C(/C=C\Nc1ccc2c(c1)OCO2)c1ccccn1, the “activity, negative = inhibition” value is reported as inactive: -11.2%.
COc1ccc(CCNC(=O)CSc2n[nH]c(C)c2[N+](=O)[O-])cc1OC was tested, and the Potency was active: 28.2 µM.
In the case of COC(=O)c1ccc(CSc2n[nH]c(=S)s2)o1, the Potency is reported as active: 3.55 µM.
With Clc1cccc(-c2ccc(CNCCCN3CCOCC3)o2)c1 the Potency was active: 28.2 µM.
In the case of Cc1sc(NC(=S)Nc2ccc(F)cc2)c(C(N)=O)c1C, the Potency is reported as active: 10 µM.
With O=C(NC1CCCCCC1)c1cc(-c2ccccn2)nc2ccccc12 the Potency was inconclusive [inhibitor, partial curve].
O=S(=O)(c1ccccc1)N1CCC2(CCCN(c3cccc(-c4ccccc4)c3)C2)CC1 was tested, and the Potency was inconclusive [inhibitor, single point].
COc1ccc(C2C3=C(CC(C)(C)CC3=O)OC(N)=C2[N+](=O)[O-])cc1 (centres undefined) was tested, and the Potency was active: 18.9 µM.
CCOC(=O)Cn1c(=O)c2c(nc(Br)n2Cc2ccccc2Cl)n(C)c1=O was tested, and the Potency was inconclusive [inhibitor, single point].
With C/C(=N\N=C(N)N)c1ccc(Cl)c(Cl)c1 the “activity, negative = inhibition” value was inactive: 0.0822%.
With C#Cc1ccc([C@@H]2C=C(C(=O)N3CCN(Cc4ccccc4)CC3)O[C@H](OCCCCO)C2)cc1 the Potency was inconclusive [inhibitor, single point].
With CC(NC(=O)CCc1nnc(-c2ccccc2)o1)c1ccccc1 (centres undefined) the Potency was inconclusive [inhibitor, partial curve].
In the case of O=C(Cc1ccccc1F)Nc1cccc2cccnc12, the Potency is reported as inconclusive [inhibitor, single point].
In the case of CCOC(=O)N1CCN(C(=O)CSc2nc(C)nc3c2c(=O)n(C)c(=O)n3C)CC1, the “activity, negative = inhibition” value is reported as inactive: 1.21%.
O=C(N/N=C/c1ccc(O)cc1O)c1cc(-c2ccccc2)n[nH]1 was tested, and the Potency was inconclusive [inhibitor, single point].
For O=C(COC(=O)[C@@H]1CC(O)CN1S(=O)(=O)c1ccccc1[N+](=O)[O-])Nc1ccc2ccccc2c1 (some centres undefined), the “activity, negative = inhibition” value was inactive: -1.46%.
For Cc1cc(/C=C2/NC(=O)NC2=O)c(C)n1-c1ccccn1, the “activity, negative = inhibition” value was inactive: -1.16%.
For CC(C)NC(=O)/C(=C/c1cn(-c2ccccc2)nc1-c1cccc([N+](=O)[O-])c1)NC(=O)c1ccccc1, the Potency was active: 14.1 µM.
For O=C(NCc1cccnc1)c1ccccc1-c1nc(-c2ccccc2)no1, the Potency was active: 20 µM.
With NCC(=O)NC1(C(=O)O)CCCC1 the activity, negative = inhibition was inactive: -2.51% [at 13.5 µM].
In the case of CC(=O)c1ccc(NC(=O)C(C)N2CCN(C/C=C/c3ccccc3)CC2)cc1 (centres undefined), the “activity, negative = inhibition” value is reported as inactive: -0.268%.
In the case of CC(C)OC(=O)c1ccc(NC(=O)c2cncc(Br)c2)cc1, the Potency is reported as active: 17.8 µM.
With COc1ccc(NC(=O)Nc2sc(NS(=O)(=O)c3ccccc3)nc2C)cc1 the Potency was active: 8.91 µM.
O=S(=O)(NCCSc1ccc(Cl)cc1)c1ccc2c(c1)OCCO2 was tested, and the Potency was active: 14.1 µM.
COc1ccc(Cn2nnnc2C(c2cc3cc(C)cc(C)c3[nH]c2=O)N2CCOCC2)cc1 (centres undefined) was tested, and the Potency was inconclusive [inhibitor, single point].
With CCOC(=O)C1(Cc2cccc(OC)c2)CCN(Cc2cccc(OC)c2O)CC1 the Potency was inconclusive [inhibitor, single point].
